# Results: the supplement of paper PMC6135742
# Values joined by “and” are separate entries in the source; they are usually repeats but may differ in a detail not shown here. Equal values may be shown once. Where a name gives a salt, the structure may show the parent alone. ± gives the standard deviation of the averaged measurements. Over roughly 2,600 compounds, “MBP+ mature oligodendrocyte number relative to DMSO vehicle control” has its median near -0.34; the highest 2% begin near 13. This is one part of the list.
# Test system: jimpy (Plp1 jimpy) mouse iPSC-derived oligodendrocyte progenitor cells
# Assay: MBP+ mature oligodendrocyte number relative to DMSO vehicle control (SDs above negative control mean); higher = more surviving jimpy oligodendrocytes (rescue)
# Details: 10 µM; 3 days
# 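Also: 10 µM single dose with 3-day oligodendrocyte differentiation.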
row,SMILES,MBP+ mature oligodendrocyte number
1,NC(=O)c1cc[n+](CC2=C(C(=O)O)N3C(=O)[C@@H](NC(=O)C(c4ccccc4)S(=O)(=O)[O-])[C@H]3SC2)cc1 (stereo not given in full) [Cefsulodin sodium salt hydrate],-0.551
2,CS(=O)(=O)Nc1ccc([N+](=O)[O-])cc1Oc1ccccc1 [Nimesulide],0.946 ± 1.2
3,O=C(O)C1=CCNCC1 [Isoguvacine hydrochloride],0.764
4,CNC(=C[N+](=O)[O-])NCCSCc1csc(CN(C)C)n1 [Nizatidine],1.15
5,CC(C)CN(C[C@@H](O)[C@H](Cc1ccccc1)NC(=O)O[C@H]1CCOC1)S(=O)(=O)c1ccc(N)cc1 [Amprenavir],1.33
6,OC[C@H]1O[C@@H](OCCc2ccc(O)cc2)[C@H](O)[C@@H](O)[C@@H]1O [Salidroside],2.8
7,CNCCC=C1c2ccccc2CCc2ccccc21 [Nortriptyline hydrochloride],-3.89
8,C[C@H]1[C@H](NC(=O)/C(=N\OC(C)(C)C(=O)O)c2csc(N)n2)C(=O)N1S(=O)(=O)O [Aztreonam],2.77
9,C=CCN1CCc2c(cc(O)c(O)c2Cl)C(c2ccccc2)C1 (racemic) [(±)-Chloro-APB hydrobromide],-2.95
10,CCc1c2c(nc3ccc(OC(=O)N4CCC(N5CCCCC5)CC4)cc13)-c1cc3c(c(=O)n1C2)COC(=O)[C@]3(O)CC [Irinotecan],-3.82
11,CCc1c2c(nc3ccc(OC(=O)N4CCC(N5CCCCC5)CC4)cc13)-c1cc3c(c(=O)n1C2)COC(=O)[C@]3(O)CC [Irinotecan HCl Trihydrate],-3.63
12,Cc1ccc(/C(=C\CN2CCCC2)c2ccccn2)cc1 [Triprolidine hydrochloride],1.11
13,C=C1/C(=C\C=C2/CCC[C@]3(C)[C@@H]([C@H](C)CCCC(C)(C)O)CC[C@@H]23)C[C@@H](O)C[C@@H]1O [Calcitriol],-2.6
14,Cc1c(Cl)cccc1Nc1ncccc1C(=O)O [Clonixin],-0.433
15,CCC[C@H](NC(=O)/C(C#N)=C/c1cccc(Br)n1)c1ccccc1 [Degrasyn (WP1130)],< -4.81
16,CCOc1cc2ncc(C#N)c(Nc3ccc(OCc4ccccn4)c(Cl)c3)c2cc1NC(=O)/C=C/CN(C)C [Neratinib (HKI-272)],< -4.81
17,Cc1cccc(Nc2cc(Cl)nc(SCC(=O)O)n2)c1C,2.37
18,"Nc1ncnc2c1ncn2[C@@H]1O[C@H](COP(=O)(O)CP(=O)(O)OP(=O)(O)O)[C@H](O)C1O (stereo partly drawn) [alpha,beta-Methylene adenosine 5'-triphosphate dilithium]",-1.15
19,O=C(N/N=C/c1ccc([N+](=O)[O-])o1)c1ccc(O)cc1 [Nifuroxazide],-2.72
20,NC(=O)c1ncn([C@@H]2O[C@H](CO)[C@@H](O)[C@H]2O)c1O [Mizoribine],0.458
21,Cc1cn([C@@H]2C[C@@H](O)[C@H](CO)O2)c(=O)[nH]c1=O [Telbivudine],-0.0169
22,Cc1ccc(C(=O)Nc2ccc(S(=O)(=O)O)c3cc(S(=O)(=O)O)cc(S(=O)(=O)O)c23)cc1NC(=O)c1cccc(NC(=O)Nc2cccc(C(=O)Nc3cc(C(=O)Nc4ccc(S(=O)(=O)O)c5cc(S(=O)(=O)O)cc(S(=O)(=O)O)c45)ccc3C)c2)c1 [Suramin sodium salt],-1.35
23,CCc1cc(C(N)=S)ccn1 [Ethionamide],2.14

row,SMILES,MBP+ mature oligodendrocyte number
1,OCc1ccc(O[C@@H]2O[C@H](CO)[C@@H](O)[C@H](O)[C@H]2O)cc1 [Gastrodin],1.18
2,O=C(NC(NC(=S)Nc1ccc(F)c([N+](=O)[O-])c1)C(Cl)(Cl)Cl)C(c1ccccc1)c1ccccc1 (stereo not given),-5.76
3,Cn1cc(C2=C(c3ccc(Cl)cc3Cl)C(=O)NC2=O)c2ccccc21,22.4 and 12.6
4,O=c1c(-c2ccc(O)cc2)coc2cc(O)cc(O)c12 [Genistein],1.02 ± 1.6
5,OCc1ccc(-c2ccc(-c3ccc(CO)s3)o2)s1,-5.93
6,O=C(O)c1ccc(Nc2ncc3c(n2)-c2ccc(Cl)cc2C(c2c(F)cccc2F)=NC3)cc1,-3.12
7,Cc1cc(N2CCOCC2)ccc1Nc1nc(NC2CCCCC2)c2[nH]cnc2n1,-1.7
8,C[C@H](NC(=O)Cc1cc(F)cc(F)c1)C(=O)N[C@@H]1C(=O)N(C)c2ccccc2-c2ccccc21,-2.44
9,COC(=O)[C@H]1[C@H]2C[C@@H]3c4[nH]c5cc(OC)ccc5c4CCN3C[C@H]2C[C@@H](OC(=O)c2cc(OC)c(OC)c(OC)c2)[C@@H]1OC [Reserpine],-1.38 ± 2.8
10,COc1cc2c(cc1OC)-c1cc3ccc(OC)c(OC)c3c[n+]1CC2 [Palmatine chloride],11.4
11,CC(C)C[C@H](NC(=O)[C@@H](O)[C@H](N)Cc1ccccc1)C(=O)O [Bestatin hydrochloride],-1.3
12,O=C(O)CN(CCOCCOCCN(CC(=O)O)CC(=O)O)CC(=O)O,-0.282
13,C=CCc1ccc(O)c(-c2ccc(O)c(CC=C)c2)c1 [Honokiol],0.731
14,CNC(=C[N+](=O)[O-])NCCSCc1ccc(CN(C)C)o1 [Ranitidine],3.04
15,CNC(=C[N+](=O)[O-])NCCSCc1ccc(CN(C)C)o1 [Ranitidine hydrochloride],-0.354
16,COC(=O)c1ccc2c(c1)NC(=O)/C2=C(\Nc1ccc(N(C)C(=O)CN2CCN(C)CC2)cc1)c1ccccc1 [Nintedanib (BIBF 1120)],-6.61
17,O=C(O[C@@H]1Cc2c(O)cc(O)cc2O[C@@H]1c1cc(O)c(O)c(O)c1)c1cc(O)c(O)c(O)c1 [(-)-Epigallocatechin Gallate],-0.668
18,CC(C)C[C@H](NC(=O)CNC(=O)c1cc(Cl)ccc1Cl)B(O)O,< -4.81
19,N#C[C@@H]1CCCN1C(=O)CNC12CC3CC(CC(O)(C3)C1)C2 [Vildagliptin (LAF-237)],2.17
20,[Cl-].[Li+] [Lithium Chloride],1.13
21,CCOc1ccn(-c2ccc(F)cc2)c(=O)c1C(=O)Nc1ccc(Oc2ccnc(N)c2Cl)c(F)c1,1.6
22,CCn1cc(-c2ccnc3[nH]c(-c4cccc(CN(C)C)c4)cc23)c(-c2ccc(NC(=O)N(C)C)cc2)n1,-5.93
